# Measurements published in the supplement of paper PMC8728848.
# The list shows a part of the results.
# How the values were obtained:
# Test in all cases: glycan array binding signal (z-score within array); higher = stronger binding
# Details in all cases: glycan notation: IUPAC condensed, linker removed
# Fuc(a1-2)Gal = molecular target: Fuc(a1-2)Gal
# Procedure, shortened: (§1)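 Negative Z-scores can be read as non-binding. The Z-score is calculated within each array and then averaged across arrays of one protein sequence at different concentrations or buffers and across linkers. Arrays, 3228 in all, were curated from the Consortium for Functional Glycomics database and kept only where the protein sequence was available.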
# Fuc(a1-2)Gal(b1-3)GalNAc = molecular target: Fuc(a1-2)Gal(b1-3)GalNAc
# Procedure, shortened: as §1
# [1] = molecular target: Fuc(a1-2)Gal(b1-3)GalNAc(a1-3)[Fuc(a1-2)]Gal(b1-4)Glc
# Procedure, shortened: as §1
# [2] = molecular target: Fuc(a1-2)Gal(b1-3)GalNAc(a1-3)[Fuc(a1-2)]Gal(b1-4)GlcNAc
# Procedure, shortened: as §1
# [3] = molecular target: Fuc(a1-2)Gal(b1-3)GalNAc(b1-3)Gal
# Procedure, shortened: as §1
# [4] = molecular target: Fuc(a1-2)Gal(b1-3)GalNAc(b1-3)Gal(a1-4)Gal(b1-4)Glc
# Procedure, shortened: as §1
# [5] = molecular target: Fuc(a1-2)Gal(b1-3)GalNAc(b1-4)[Neu5Ac(a2-3)]Gal(b1-4)Glc
# Procedure, shortened: as §1
# Fuc(a1-2)Gal(b1-3)GlcNAc = molecular target: Fuc(a1-2)Gal(b1-3)GlcNAc
# Procedure, shortened: as §1
# [6] = molecular target: Fuc(a1-2)Gal(b1-3)GlcNAc(b1-2)Man(a1-3)[Fuc(a1-2)Gal(b1-3)GlcNAc(b1-2)Man(a1-6)]Man(b1-4)GlcNAc(b1-4)GlcNAc
# Procedure, shortened: as §1
# [7] = molecular target: Fuc(a1-2)Gal(b1-3)GlcNAc(b1-2)Man(a1-3)[Fuc(a1-2)Gal(b1-3)GlcNAc(b1-2)Man(a1-6)]Man(b1-4)GlcNAc(b1-4)[Fuc(a1-6)]GlcNAc
# Procedure, shortened: as §1
# [8] = molecular target: Fuc(a1-2)Gal(b1-3)GlcNAc(b1-3)Gal(b1-4)Glc
# Procedure, shortened: as §1
# [9] = molecular target: Fuc(a1-2)Gal(b1-3)GlcNAc(b1-3)GalNAc
# Procedure, shortened: as §1
# [10] = molecular target: Fuc(a1-2)Gal(b1-3)GlcNAc(b1-3)[Fuc(a1-2)Gal(b1-3)GlcNAc(b1-6)]GalNAc
# Procedure, shortened: as §1
# [11] = molecular target: Fuc(a1-2)Gal(b1-3)GlcNAc(b1-3)[Gal(b1-4)GlcNAc(b1-6)]Gal(b1-4)Glc
# Procedure, shortened: as §1
# [12] = molecular target: Fuc(a1-2)Gal(b1-3)GlcNAc(b1-3)[Neu5Ac(a2-6)Gal(b1-4)GlcNAc(b1-6)]Gal(b1-4)Glc
# Procedure, shortened: as §1
# [13] = molecular target: Fuc(a1-2)Gal(b1-3)GlcNAc6S
# Procedure, shortened: as §1
# [14] = molecular target: Fuc(a1-2)Gal(b1-3)[Fuc(a1-4)]GlcNAc
# Procedure, shortened: as §1
# [15] = molecular target: Fuc(a1-2)Gal(b1-3)[Fuc(a1-4)]GlcNAc(b1-2)Man(a1-3)[Fuc(a1-2)Gal(b1-3)[Fuc(a1-4)]GlcNAc(b1-2)Man(a1-3)]Man(b1-4)GlcNAc(b1-4)GlcNAc
# Procedure, shortened: as §1
# [16] = molecular target: Fuc(a1-2)Gal(b1-3)[Fuc(a1-4)]GlcNAc(b1-2)Man(a1-3)[Fuc(a1-2)Gal(b1-3)[Fuc(a1-4)]GlcNAc(b1-2)Man(a1-6)]Man(b1-4)GlcNAc(b1-4)[Fuc(a1-6)]GlcNAc(b1-4)[Fuc(a1-6)]GlcNAc
# Procedure, shortened: as §1
# [17] = molecular target: Fuc(a1-2)Gal(b1-3)[Fuc(a1-4)]GlcNAc(b1-3)[Fuc(a1-3)[Gal(b1-4)]GlcNAc(b1-6)]Gal(b1-4)Glc
# Procedure, shortened: as §1
# [18] = molecular target: Fuc(a1-2)Gal(b1-3)[Fuc(a1-4)]GlcNAc(b1-3)[Gal(b1-4)GlcNAc(b1-6)]Gal(b1-4)Glc
# Procedure, shortened: as §1
# [19] = molecular target: Fuc(a1-2)Gal(b1-4)Fuc(a1-3)]GlcNAc(b1-2)Man(a1-3)[Fuc(a1-2)Gal(b1-4)[Fuc(a1-3)]GlcNAc(b1-2)Man(a1-6)]Man(b1-4)GlcNAc(b1-4)GlcNAc
# Procedure, shortened: as §1
# Fuc(a1-2)Gal(b1-4)Glc = molecular target: Fuc(a1-2)Gal(b1-4)Glc
# Procedure, shortened: as §1
# Fuc(a1-2)Gal(b1-4)Glc6S = molecular target: Fuc(a1-2)Gal(b1-4)Glc6S
# Procedure, shortened: as §1
# Fuc(a1-2)Gal(b1-4)GlcNAc = molecular target: Fuc(a1-2)Gal(b1-4)GlcNAc
# Procedure, shortened: as §1
# [20] = molecular target: Fuc(a1-2)Gal(b1-4)GlcNAc(b1-2)Man
# Procedure, shortened: as §1
# [21] = molecular target: Fuc(a1-2)Gal(b1-4)GlcNAc(b1-2)Man(a1-3)[Fuc(a1-2)Gal(b1-4)GlcNAc(b1-2)Man(a1-6)]Man(b1-4)GlcNAc(b1-4)GlcNAc
# Procedure, shortened: as §1
# [22] = molecular target: Fuc(a1-2)Gal(b1-4)GlcNAc(b1-2)Man(a1-3)[Fuc(a1-2)Gal(b1-4)GlcNAc(b1-2)Man(a1-6)]Man(b1-4)GlcNAc(b1-4)[Fuc(a1-6)]GlcNAc
# Procedure, shortened: as §1
# [23] = molecular target: Fuc(a1-2)Gal(b1-4)GlcNAc(b1-2)[Fuc(a1-2)Gal(b1-4)GlcNAc(b1-4)]Man(a1-3)[Fuc(a1-2)Gal(b1-4)GlcNAc(b1-2)Man(a1-6)]Man(b1-4)GlcNAc(b1-4)GlcNAc
# Procedure, shortened: as §1
# [24] = molecular target: Fuc(a1-2)Gal(b1-4)GlcNAc(b1-3)Gal(b1-4)GlcNAc
# Procedure, shortened: as §1
binder,measurement,setting,value
"CC1G-11630 (Coprinopsis cinerea), A8P462 (protein) MTTEAKIKLKAVVYWELVFDYDNSSNTGEITQSYTVKISQTSTRSTFASEVSTTTIDTLTKNNQEVDVGASYGAISANVSASWEHSEEVNNMLEKTTQTSTEDTYTVETEETRSYTIGPGGMLSLFQKHFSGPGMHVAFDVFTTDLELAKERTEIDIDVDVEAIRFVREIRVVYTDIMSEAPGDHVREINGKNPDINYGFNGKFVWLVPEQTRKTAQALTNVEFVSQAESDDRYWDLAAGAGGSNRYLIPVYDTNNKDKIYELALWRSDSYITHDKVKAAGWSGTTGDINSGRGGTYLNLVWKTRHAY",glycan array binding signal (z-score),Fuc(a1-2)Gal,-0.208
same,glycan array binding signal (z-score),Fuc(a1-2)Gal(b1-3)GalNAc,-0.617
same,glycan array binding signal (z-score),[1],-0.391
same,glycan array binding signal (z-score),[2],0.2
same,glycan array binding signal (z-score),[3],1.26
same,glycan array binding signal (z-score),[4],0.054
same,glycan array binding signal (z-score),[5],-0.101
same,glycan array binding signal (z-score),Fuc(a1-2)Gal(b1-3)GlcNAc,-0.468
same,glycan array binding signal (z-score),[6],0.706
same,glycan array binding signal (z-score),[7],0.009
same,glycan array binding signal (z-score),[8],-0.226
same,glycan array binding signal (z-score),[9],0.001
same,glycan array binding signal (z-score),[10],0.024
same,glycan array binding signal (z-score),[11],-0.493
same,glycan array binding signal (z-score),[12],-0.347
same,glycan array binding signal (z-score),[13],-0.14
same,glycan array binding signal (z-score),[14],-0.476
same,glycan array binding signal (z-score),[15],2.22
same,glycan array binding signal (z-score),[16],-0.509
same,glycan array binding signal (z-score),[17],-0.679
same,glycan array binding signal (z-score),[18],-0.49
same,glycan array binding signal (z-score),[19],1.38
same,glycan array binding signal (z-score),Fuc(a1-2)Gal(b1-4)Glc,-0.319
same,glycan array binding signal (z-score),Fuc(a1-2)Gal(b1-4)Glc6S,0.335
same,glycan array binding signal (z-score),Fuc(a1-2)Gal(b1-4)GlcNAc,-0.153
same,glycan array binding signal (z-score),[20],0.721
same,glycan array binding signal (z-score),[21],0.542
same,glycan array binding signal (z-score),[22],0.871
same,glycan array binding signal (z-score),[23],0.749
same,glycan array binding signal (z-score),[24],-0.822
